In PubChem BioAssay AID2675 (National Center for Advancing Translational Sciences (NCATS), 2010):
The whole screen tested about 280,000 compounds, of which about 100 (0.036%) were called active. Inconclusive means that the source gave no clear call. Such entries were picked first, then a sample of the others. Calls follow the shape of the dose curve; as a rule, active = well fitted inhibition curve with a large enough effect in the signal ratio, with a control signal flat (not every such curve was filed as active); inconclusive = small, poorly fitted or top-dose-only effect, or effect the other way, or a change in a side signal; inactive = no such curve, though single readings can be large or run the other way; the % refers to the signal ratio. Where the call is inconclusive, the potency comes from a doubtful curve fit. “Side channel” marks fits to a control or component signal instead of the main read-out.

Target: Muscleblind-like protein 1 (Homo sapiens) (UniProt Q9NR56)
Assay: qHTS Assay for Inhibitors of MBNL1-poly(CUG) RNA binding
Conditions: TR-FRET MBNL1-His/biotin-(CUG)12 binding, 665/545 ratio; activity change, negative = inhibition: at 57.5 µM (top of the series)
Outline: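 TR-FRET readout: Ex 340 nm, 665/545 nm emission ratio, normalized to buffer-only (basal) and MBNL1-(CUG)12 controls. Complex of MBNL1-His with Biotin-(CUG)12, compounds 92 nM–58 uM, incubated 60 min at room temperature.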
% is scaled to controls: 0 for no effect and ±100 for the full control effect; potency is read from the fitted curve at half-maximal effect; tags tell the direction and shape of the fitted curve or compound fluorescence and quenching.

Chain of UniProt Q9NR56 (Q9NR56 whole entry, looked up): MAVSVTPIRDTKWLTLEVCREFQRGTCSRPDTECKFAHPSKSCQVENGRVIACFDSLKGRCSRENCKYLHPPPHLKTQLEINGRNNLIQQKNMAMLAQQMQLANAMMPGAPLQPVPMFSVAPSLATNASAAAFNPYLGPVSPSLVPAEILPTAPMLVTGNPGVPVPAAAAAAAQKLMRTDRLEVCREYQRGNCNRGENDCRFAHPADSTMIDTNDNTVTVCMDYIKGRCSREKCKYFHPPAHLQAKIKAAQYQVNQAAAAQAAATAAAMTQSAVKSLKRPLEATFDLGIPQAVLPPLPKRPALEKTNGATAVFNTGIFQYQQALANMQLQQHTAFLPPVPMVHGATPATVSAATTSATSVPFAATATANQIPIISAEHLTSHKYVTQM

Compound	Potency	activity change, negative = inhibition
Nc1ccc(C(=O)OCC(=O)c2cccc([N+](=O)[O-])c2)cc1	inconclusive: 10 µM [quencher, side channel, partial curve]	–
CN(Cc1nccs1)C(=O)c1cc(COc2cccc3cnccc23)on1	inconclusive: 28.2 µM [quencher, side channel, partial curve]	–
COc1ccc(CCNC(=O)COC(=O)/C=C/c2cccs2)cc1OC	inconclusive: 28.2 µM [quencher, side channel, partial curve]	–
CCSc1nnc2ccc(-c3ccc(OC)c(OC)c3)nn12	inconclusive: 14.1 µM [quencher, partial curve]	–
Nc1nc(NCCc2ccccc2)nc(NCCO)c1[N+](=O)[O-]	inconclusive: 39.8 µM [quencher, side channel, partial curve]	–
O=[N+]([O-])c1ccc(N2CCN(c3ccccn3)CC2)c(Cl)c1	inconclusive: 10 µM [quencher, partial curve]	–
CCS(=O)(=O)CCSc1nc2ccccc2s1	inactive	–
CC(=O)c1sc2nsc(SCCN3CCOCC3)c2c1N	inconclusive: 35.5 µM [quencher, side channel, single point]	–
Cc1ccc(-c2cc(C(F)(F)F)n3nc(C(=O)N4CCN5CCCC5C4)cc3n2)cc1 (stereo unspecified)	inconclusive: 10 µM [quencher, side channel, partial curve]	–
c1ccc(C2=NNC(=NCc3ccc4c(c3)OCO4)SC2)cc1	inactive	–
COc1ccc(CCn2c(=S)[nH]c3ccc(N4CCOCC4)cc3c2=O)cc1OC	inactive	–
CCOc1ccc(C(=O)C2CCN(C(=O)c3ccc([N+](=O)[O-])cc3)CC2)cc1	inconclusive: 10 µM [quencher, side channel, partial curve]	–
CCOc1ccc(/C=N/NC(=O)c2cc3c(OC)cc(OC)c(OC)c3[nH]2)cc1	inconclusive: 25.1 µM [quencher, single point]	–
CCC(=O)Nc1cccc(NC(=O)c2ccccc2Br)c1	inconclusive: 1.26 µM [fluorescent, side channel, partial curve]	–
CCOC(=O)c1cc2c(C)[nH]c(C)c2cc(C(=O)OCC)c1=O	inconclusive: 14.1 µM [quencher, side channel, partial curve]	–
CCNc1ccccc(-c2ccc3ccccc3n2)c1=O	inconclusive: 11.2 µM [quencher, side channel, partial curve]	–
COc1ccc(/C=C/C(=O)Nc2ccccc2C(F)(F)F)cc1OC	inactive	–
Clc1ccc(-c2nc3ncccn3c2Nc2ccc3c(c2)OCO3)cc1	inconclusive: 158 µM [inhibitor, partial curve, poor fit]	–
COc1ccc(C(=O)CN2CCN(S(=O)(=O)c3cccc([N+](=O)[O-])c3)CC2)cc1OC	inconclusive: 17.8 µM [quencher, side channel, partial curve]	–
COc1ccc(C(=O)Nc2nc3ccccc3[nH]2)cc1OC	inconclusive: 22.4 µM [quencher, side channel, partial curve]	–
CCOc1ccccc1NC(=O)CSc1nc(N)c(C#N)cc1C#N	inconclusive: 28.2 µM [fluorescent, side channel, partial curve]	–

Compound	Potency	activity change, negative = inhibition
O=C(COC(=O)c1ccc2c(c1)S(=O)(=O)c1ccccc1C2=O)NC1CC1	inconclusive: 12.6 µM [quencher, partial curve]	–
O=C1c2ccccc2C(=O)N1OCc1ccc(Cl)cc1	inconclusive: 22.4 µM [quencher, side channel, single point]	–
CN1CCN(CC(=O)Nc2cccc([N+](=O)[O-])c2)CC1	–	inconclusive: 27.9% [phenotype inactive]
N=c1c2c(n(Cc3ccc([N+](=O)[O-])cc3)c3c1CCC3)CCCC2	inconclusive: 8.91 µM [quencher, side channel, partial curve]	–
CN(C)S(=O)(=O)c1ccc(Cl)c(C(=O)Nc2nc3ccccc3[nH]2)c1	inactive	–
CCc1c(C)sc(NC(=O)c2ccccc2[N+](=O)[O-])c1C(N)=O	inconclusive: 20 µM [quencher, side channel, partial curve]	–
CCc1cccc(N(C(=O)c2csnn2)C(C(=O)NC(C)(C)C)c2ccncc2)c1 (stereo unspecified)	inactive	–
COc1ccc(-n2ncc3c(NCc4ccc5c(c4)OCO5)ncnc32)cc1	inconclusive: 39.8 µM [fluorescent, side channel, single point]	–
COc1cc(/C=C/C(=O)OCC(=O)NC(=O)NC(C)(C)C)ccc1O	inconclusive: 39.8 µM [quencher, side channel, single point]	–
CCC(CCC(=O)Nc1cccc([N+](=O)[O-])c1)C(=O)O (stereo unspecified)	inconclusive: 12.6 µM [quencher, side channel, partial curve]	–
CCOc1ccc2[nH]c(=O)c(CN(CCO)Cc3nnnn3CCc3ccccc3)cc2c1	inconclusive: 39.8 µM [quencher, side channel, single point]	–
CC(C)Cn1cc(C(=O)NCCCN2CCCC2=O)c2c3ccccc3n(C)c2c1=O	inconclusive: 28.2 µM [quencher, partial curve]	–
CCOc1ccccc1NC(=O)c1ccc([N+](=O)[O-])cc1	inconclusive: 11.2 µM [quencher, side channel, partial curve]	–
Cc1cc(C)cc(NC(=O)NCc2nnc(SCc3ccccc3)n2C)c1	inconclusive: 79.4 µM [inhibitor, single point]	–
COc1cc(/C=C2/NC(=O)N(CC(=O)Nc3cccc(C)c3)C2=O)ccc1OCC(N)=O	inconclusive: 10 µM [quencher, side channel, partial curve]	–
O=C(Nc1ccccc1N1CCOCC1)c1ccccc1[N+](=O)[O-]	inconclusive: 35.5 µM [quencher, side channel, single point]	–
CCc1cccc2c1NC1(CCCC1)CC2C (stereo unspecified)	inactive	–
O=C(Nc1cccc([N+](=O)[O-])c1)c1cc(S(=O)(=O)Nc2ccccn2)ccc1Cl	inconclusive: 12.6 µM [quencher, side channel, partial curve]	–
NC(=S)N=Nc1c(O)n(CCCl)c2ccccc12	inactive	–
COc1ccc(CN2CCN(S(=O)(=O)c3ccc(NC(C)=O)cc3)CC2)cc1	inactive	–
Cc1cc(C)cc(Nc2ccc([N+](=O)[O-])nc2[N+](=O)[O-])c1	inconclusive: 11.2 µM [quencher, side channel, partial curve]	–

Compound	Potency	activity change, negative = inhibition
COc1cccc(-c2nc(Oc3cc(C)cc(C)c3)c3ccccc3n2)c1O	–	inconclusive: -5.13% [phenotype inactive]
O=[N+]([O-])c1ccc(/C=N/NC2=NS(=O)(=O)c3ccccc32)cc1	inconclusive: 39.8 µM [quencher, side channel, single point]	–
CCOC(=O)CNS(=O)(=O)c1ccc(C)cc1	inconclusive: 0.794 µM [fluorescent, side channel, single point]	–
O=C(C[n+]1cccc2ccccc21)c1ccc(Br)cc1	inconclusive: 14.1 µM [quencher, side channel, partial curve]	–
CCOC(=O)N1CCN(C(=O)CSCC(=O)Nc2nc(-c3ccc(-c4ccccc4)cc3)cs2)CC1	inconclusive: 39.8 µM [quencher, side channel, single point]	–
N=C(c1cccc([N+](=O)[O-])c1)N1CCCCC1	inconclusive: 25.1 µM [quencher, side channel, single point]	–
O=C(NCc1ccco1)c1ccc(Cl)c(S(=O)(=O)Nc2ccccc2)c1	inactive	–
O=C(Nc1ccc(S(=O)(=O)N2CCCC2)cc1)c1ccc([N+](=O)[O-])cc1	inconclusive: 2 µM [quencher, side channel, partial curve, poor fit]	–
Cc1ccnc(N2CCC(C(=O)Nc3ccc4c(c3)OCCO4)CC2)n1	inactive	–
O=C(O)c1cc2nccc(-c3ccc(F)cc3)n2n1	inconclusive: 15.8 µM [quencher, side channel, partial curve]	–
O=C(Nc1nc2ccc([N+](=O)[O-])cc2s1)C1CCCO1 (stereo unspecified)	inconclusive: 8.91 µM [quencher, side channel, partial curve]	–
CN(C)c1ccc(C(=O)/C=C/c2ccccc2)cc1	inactive	–
Cc1[nH]n(C(N)=S)c(=O)c1N=Nc1ccccc1C(F)(F)F	inconclusive: 31.6 µM [quencher, side channel, single point]	–
C#CCn1c(=NC(=O)c2ccc(S(=O)(=O)N3CCc4ccccc4C3)cc2)sc2cc(S(N)(=O)=O)ccc21	inconclusive: 39.8 µM [fluorescent, side channel, single point]	–
Cc1ccc(NC(=O)CN2C(=O)S/C(=C/c3ccc(O)c([N+](=O)[O-])c3)C2=O)cc1C	inconclusive: 17.8 µM [quencher, side channel, partial curve]	–
COc1ccc(NC(=O)CSc2[nH]c(=O)cc(C)c2C#N)cc1OC	inactive	–
O=C(N/N=C/c1c(O)n(-c2ccc(Cl)cn2)c(=O)c2ccccc12)c1ccncc1	inconclusive: 3.16 µM [quencher, side channel, partial curve]	–
CCCn1nnnc1SCC(=O)NCc1ccc2c(c1)OCO2	inactive	–
C=CCOC(=O)C1C(=O)CC(C)(O)C(C(=O)OCC=C)C1c1ccc(OC)cc1 (stereo unspecified)	inconclusive: 1.78 µM [quencher, side channel, partial curve]	–
